Measured values as given in PMC4429025, “Characterization of Mutants of Human Small Heat Shock Protein HspB1 Carrying Replacements in the N-Terminal Domain and Associated with Hereditary Motor Neuron Diseases” (PLoS ONE, 2015).
Results are given in words; binding and its absence hold for the method and conditions named. Some results given as binding are weak or reduced against the parent protein; the word gives no strength.

By UniProt entry, the sequences of proteins in these tests, tags left out. Where a name states a change or a piece, a line headed by the entry shows the natural chain unless it says otherwise.
UniProt P04792: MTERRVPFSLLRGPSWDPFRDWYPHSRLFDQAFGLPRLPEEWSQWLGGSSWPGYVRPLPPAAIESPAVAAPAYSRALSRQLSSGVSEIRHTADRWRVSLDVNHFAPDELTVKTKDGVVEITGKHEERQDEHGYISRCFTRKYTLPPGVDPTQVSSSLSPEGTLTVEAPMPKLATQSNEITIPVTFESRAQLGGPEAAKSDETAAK

Assays:
wild type HspB6 (human) [1] = molecular target: T1, wild type HspB6 (human) (UniProt O14558); test: SEC; reduced HspB1 and HspB6 mixed in buffer S at 0.5 mg/ml each, incubated 1 h at 42°C, run on Superdex 200 HR 10/30 at room temperature; fractions analysed by SDS PAGE; both purified
T1 sequence: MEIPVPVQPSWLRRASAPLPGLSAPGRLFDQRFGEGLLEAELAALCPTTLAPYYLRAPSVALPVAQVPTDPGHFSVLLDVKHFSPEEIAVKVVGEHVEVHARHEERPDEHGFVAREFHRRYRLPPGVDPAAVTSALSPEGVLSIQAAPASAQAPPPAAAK

wild type HspB6 (human) [2] = molecular target: T1, wild type HspB6 (human); test: condition: only mixture preincubated 1 h on ice (4°C) instead of 42°C; 0.5 mg/ml each; SEC; reduced HspB1 and HspB6 mixed in buffer S at 0.5 mg/ml each, incubated 1 h on ice (4°C), run on Superdex 200 HR 10/30 at room temperature; both purified

binding (wild type HspB6 (human) [1])	binding (wild type HspB6 (human) [2])	Substance
binds	no binding	G34R mutant of HspB1 (from UniProt P04792 1-205)
binds	no binding	E41K mutant of HspB1 (from UniProt P04792 1-205)
binds	no binding	P39L mutant of HspB1 (from UniProt P04792 1-205)
binds	no binding	wild type HspB1 (human small heat shock protein HspB1) (from UniProt P04792 1-205)
